Key:
CD28 negative T cells = assay: CD28 negative T cell number after CD3/CD28 stimulation of human PBMCs for 4 days, flow cytometry; format: cell-based
Method: (§1) PBMCs were separated from human peripheral blood by Ficoll centrifugation and added to a 96-well U-bottom microplate in an amount of 4×10^5 cells/well. Human IL-2 (PeproTech, Inc., final concentration: 100 ng/mL) and Dynabeads Human T-Activator CD3/CD28 (Life Technologies Corp., 4×105 beads/well) were added thereto, and T cells were activated by culture for 4 days. The obtained cells were recovered, suspended in a FACS buffer (PBS, 0.1% BSA, and 0.1% sodium azide), and then reacted with Human BD Fc Block (Becton, Dickinson and Company) at room temperature for 10 minutes. Subsequently, the cell surface was stained by reaction at 4° C. for 30 minutes with fluorescently labeled antibodies diluted with a FACS buffer containing a LIVE/DEAD Fixable Dead Cell Stain Kit-near-IR fluorescent reactive dye (manufactured by Invitrogen Corp.), followed by washing with a FACS buffer. The fluorescently labeled antibodies used were various combinations of a FITC-labeled anti-human CD8 antibody, a PerCP-Cy5.5-labeled anti-human CD3 antibody, an APC-labeled anti-human CD28 antibody, and a Pacific Blue-labeled anti-human CD57 antibody (all from Becton, Dickinson and Company), a PE-labeled anti-human CD28 antibody (BioLegend, Inc.), and an anti-human LAG-3 antibody and an isotype control antibody labeled using a PE labeling kit (Dojindo Laboratories). […] The data was analyzed using FlowJo (manufactured by Tree Star Inc). After removal of the LIVE/DEAD Fixable Dead Cell Stain Kit-near-IR fluorescent reactive dye-positive dead cells by gating, only the living cells were analyzed by further gating CD3 positive and CD8 positive CD8 T cells.
(§2) The effect of the humanized anti-human LAG-3 antibody hLA212_H4/L2, the calcineurin inhibitor tacrolimus, and the corticosteroid dexamethasone on CD28 negative T cells and CD57 positive T cells was investigated in the assay system of Example 13. […] Out of the living cells, a CD3 positive and CD8 negative fraction and a CD3 positive and CD8 positive fraction were analyzed as CD4 T cells and CD8 T cells, respectively.

[1] = molecular target: T1, human LAG-3 expressed on 293T-lacZ cells (Homo sapiens, UniProt P18627); assay: Binding activity to 293T-lacZ cells expressing human LAG-3 by flow cytometry; conditions: mean fluorescence intensity
T1 construct: An expression plasmid of the full-length human LAG-3 was introduced into the 293T cells stably expressing β-galactosidase; expressed in transfected cells; host or cells: 293T-lacZ cells (293T stably expressing β-galactosidase), transient transfection
T1 sequence (P18627 23-525): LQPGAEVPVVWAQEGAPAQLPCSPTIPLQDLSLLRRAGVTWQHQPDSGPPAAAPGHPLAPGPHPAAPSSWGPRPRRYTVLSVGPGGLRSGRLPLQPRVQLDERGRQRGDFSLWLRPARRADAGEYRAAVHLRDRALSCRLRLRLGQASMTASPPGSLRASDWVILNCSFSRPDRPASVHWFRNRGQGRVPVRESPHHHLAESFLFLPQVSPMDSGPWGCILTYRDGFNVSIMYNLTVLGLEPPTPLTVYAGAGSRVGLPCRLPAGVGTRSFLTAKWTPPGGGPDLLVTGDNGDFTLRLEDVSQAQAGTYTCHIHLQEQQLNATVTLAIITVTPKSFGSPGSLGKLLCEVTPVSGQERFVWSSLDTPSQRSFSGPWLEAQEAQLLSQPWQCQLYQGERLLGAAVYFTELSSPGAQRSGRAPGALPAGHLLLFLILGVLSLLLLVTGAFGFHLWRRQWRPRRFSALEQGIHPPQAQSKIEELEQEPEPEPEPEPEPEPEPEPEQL
Procedure, shortened: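 293T-lacZ cells transiently transfected with human LAG-3 plasmid and cultured 1 day before flow cytometry. Bound antibody detected with anti-human IgG PE conjugate diluted 200-fold in FACS buffer.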

CD57 positive T cells = assay: CD57 positive T cell number after CD3/CD28 stimulation of human PBMCs for 4 days, flow cytometry; format: cell-based
Method: as §1, §2

[2] = hLA212_H4/L2 10, 1, 0.1 μg/mL (effect concentration dependent), tacrolimus 10 nM, dexamethasone 1 μM, 4 days, two donors
[3] = hLA212_H4/L2 10, 1, 0.1 μg/mL, tacrolimus 10 nM, dexamethasone 1 μM, 4 days, two donors
[4] = antibodies not in a low fucose form, more weakly than hLA212_H4/L2, data not shown

B1: hLA212_H4/L2: defucosylated humanized antibody; heavy chain positions 20 to 470 of SEQ ID No: 30, light chain positions 21 to 234 of SEQ ID No: 34 (antibody)
heavy: EVQLVESGGGLVQPGGSLRLSCAASGFTYRSYVMAWVRQAPGKGLEWVASISTGGGNTYYRDSVKGRFTISRDNAKNTLYLQMDSLRAEDTAVYYCAEDMSNSGYGLFDYWGQGTLVTVSSASTKGPSVFPLAPSSKSTSGGTAALGCLVKDYFPEPVTVSWNSGALTSGVHTFPAVLQSSGLYSLSSVVTVPSSSLGTQTYICNVNHKPSNTKVDKRV[left out - human IgG1 Fc]
light: DIQMTQSPSSLSASVGDRVTITCKAGQNVDNNIAWYQQKPGQSPKLLIYYASNRNTGVPSRFSGSGYGTDFTLTISSLQPEDFATYYCQRISNSPYTFGQGTKVEIKRTVAAPSVFIFPPSDEQLKSGTASVVCLLNNFYPREAKVQWKVDNALQSGNSQESVTEQDSKDSTYSLSSTLTLSKADYEKHKVYACEVTHQGLSSPVTKSFNRGEC
number of CD28 negative CD8 T cells (CD28 negative T cells; [2]): evidently reduced
number of CD28 negative CD4 T cells (CD28 negative T cells; [3]): reduced the number of CD28 negative CD4 T cells, albeit not as remarkably as observed in the CD28 negative CD8 T cells
binding activity to 293T-lacZ cells expressing human LAG-3 [1]: concentration-dependent binding
number of CD57 positive CD8 T cells (CD57 positive T cells; [2]): evidently reduced
number of CD57 positive CD4 T cells (CD57 positive T cells; [3]): reduced the number of CD57 positive CD4 T cells, albeit not as remarkably as observed in the CD57 positive CD8 T cells

B2: hLA212_H3/L2: humanized antibody; heavy chain positions 20 to 470 of SEQ ID No: 30, light chain positions 21 to 234 of SEQ ID No: 34 (antibody)
heavy: EVQLVESGGGLVQPGGSLRLSCAASGFTYRSYVMAWVRQAPGKGLEWVASISTGGGNTYYRDSVKGRFTISRDNAKNTLYLQMDSLRAEDTAVYYCAEDMSNSGYGLFDYWGQGTLVTVSSASTKGPSVFPLAPSSKSTSGGTAALGCLVKDYFPEPVTVSWNSGALTSGVHTFPAVLQSSGLYSLSSVVTVPSSSLGTQTYICNVNHKPSNTKVDKRV[left out - human IgG1 Fc]
light: DIQMTQSPSSLSASVGDRVTITCKAGQNVDNNIAWYQQKPGQSPKLLIYYASNRNTGVPSRFSGSGYGTDFTLTISSLQPEDFATYYCQRISNSPYTFGQGTKVEIKRTVAAPSVFIFPPSDEQLKSGTASVVCLLNNFYPREAKVQWKVDNALQSGNSQESVTEQDSKDSTYSLSSTLTLSKADYEKHKVYACEVTHQGLSSPVTKSFNRGEC
number of CD28 negative T cells (CD28 negative T cells; [4]): tendency to reduce
binding activity to 293T-lacZ cells expressing human LAG-3 [1]: concentration-dependent binding activity to the 293T-lacZ cells expressing human LAG-3, comparable to the human chimeric anti-LAG-3 antibody cLA212
number of CD57 positive T cells (CD57 positive T cells; [4]): tendency to reduce
